Here are results for one molecule from patent US20230285555A1.

The target of assay [1] is CD137-muFc. Description: indirect ELISA, plate coated with 5 ug/mL CD137-muFc; preparation 13 at T0.
In assay [2] the target is CD137-muFc. The assay can be described thus: indirect ELISA, plate coated with 5 ug/mL CD137-muFc; preparation 14 at T0. (In general: ELISA stands for enzyme-linked immunosorbent assay.)
Assay [3] deals with CD137-muFc. The assay can be described thus: indirect ELISA, plate coated with 5 ug/mL CD137-muFc; preparation 13 after 4 weeks of storage.
Assay [4] addresses CD137-muFc. The assay can be described thus: indirect ELISA, plate coated with 5 ug/mL CD137-muFc; preparation 14 after 4 weeks of storage.
Assay [5] concerns the target CD137-muFc. The assay can be described thus: indirect ELISA, plate coated with 5 ug/mL CD137-muFc; preparation 13 at T0 (the reference itself).
Assay [6] addresses CD137-muFc. The assay can be described thus: indirect ELISA, plate coated with 5 ug/mL CD137-muFc; preparation 14 at T0 (the reference itself).
Assay [7] deals with CD137-muFc. Description: indirect ELISA, plate coated with 5 ug/mL CD137-muFc; preparation 13 after 4 weeks of storage, against T0.
The target in assay [8] is CD137-muFc. The assay can be described thus: indirect ELISA, plate coated with 5 ug/mL CD137-muFc; preparation 14 after 4 weeks of storage, against T0.

B1: C2-7BN78K-Fc (Fc fusion)
scFv: EVQLVESGGGLVKPGGSLRLSCAASGFTVSDYYMNWIRQAPGKGLEWVSYISSSASGSTIYYADSVKGRFTISRDNAKNSLYLQMNSLRTEDTAIYYCARVVPAGSGWRWFDPWGQGTLVTVSSGGGGSGGGGSGGGGSQSVLIQPPSVSGSPGQSVTISCTGISSDVGAYDYVSWYQQHPGKVPKLMIYEVSKRPSGVPDRFSGSKSGDTASLTISGLQAEDEADYYCSSHAGSNNFYVFGTGTKLTVLGGGGS[… human IgG4 Fc with S228P (EU numbers) …]
For the molecule B1, the EC50 worked out at 0.0171 µg/mL in assay [1], 0.0194 µg/mL in assay [2], 0.0229 µg/mL in assay [3] and 0.0243 µg/mL in assay [4]. Moreover, the Binding activity (relative, EC50 at T0 against EC50 of the sample) in assay [5] was 100%; in assay [6], 100%; in assay [7], 74.9%; in assay [8], 79.9%.

Broadly, the EC50 is the concentration at which the effect is half-maximal. Read a low EC50 as higher potency in that assay.
